The labels stand for the following.
B1: CPEB3 Ribozyme (parent)
chain: UAACAGGGGGCCACAGCAGAAGCGUUCACGUCGCAGCCCCUGUCAGAUUCUGGUGAAUCUGCGAAUUCUGCUGUAUAUCUC

The values that follow come from the RNAGym collection of RNA variant scans (doi:10.1093/nar/gkz1192).

Read counts are not given, so values of variants with three or more changes are uncertain.

This data set covers variants of B1. In words: self-cleavage, relative activity (ratio to wild type); higher = more cleavage; in vitro, sequencing. In short, it runs like this: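 For each CPEB3 ribozyme variant, relative activity is its cleaved/total read fraction divided by the unmutated ribozyme's. Barcoded error-prone PCR libraries were transcribed by T7 RNA polymerase (5 hours, 37°C) and held in DNase I for 15 min before an EDTA stop, with cleavage occurring throughout. Template-switching reverse transcription and Illumina sequencing were used to read the RNAs. A 5-read minimum applied, and results are the mean of three batches.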
UAACAGGGGGGCACAGCGGAAGCGUUCAUGUCGCAGCCCCUGUCAGAUUCUGGUGAAUCUGCGAAGUCUGCUGUAUAUCUC: the self-cleavage is 0.07. The value for UAACAGGGGGGCACAGCAGAAGCGUUCACGUCGCAGCCCCUGUCAGAUUCUGGUGAGACUGCGAAUUCUGCUGUAUAUCCC was 0.22; that for UAACAGGGGGGCACAGCAGGAGCGUUCACGUCGCAGCCCCUGUCAGAUUCCGGAGAAUCUGCGAAUUCCGCUGUAUAUCUC was 0.36; that for UAACAGGGGGGCACAGCAGAAGCGUUCACGUCGCAGCCCCUGUCAGGUUCUGGUGAAUCUGCGAAUUCUGCUGUAUGUCUC was 0.61. The value for UAACAGGGGGGCACAGCAGAGGCGUUCACGUGGCAGCCCCUGUCAGACUCUGGUGAAUCUGCGAAUUCUGCUGUAUAUCUC was 0.07. Turning to UAACAGGGGGGCACAGCAGGGGCGUUCACGUCGCAGCCCCUGCCAGAUUCUGGUGAAUCCGCGAAUUCUGCUGUAUAUCUC, the self-cleavage turned out to be 0.36. Under UAACAGGGGGGCACAGCGGAAGCGUCCACGUCGCAGCCCCUGCCAGAUUCUGGUGAACCUGCGAAUUCUGCUGUAUAUCUC stands 0.18; under UAACAGGGGGGCACAGCAGGAGCGUUCACGACUCAGCCCCUGUCAGAUUCUGGUGAAUCUGCGAAUUCUGCUGUAUAUCUC, 0.23. Under UAACAGGGGGGCACAGCAGAAGCGUUCGCGUCGCAGCCCCUGUCUGAUUCUGGUGUGUCUGCGAAUUCUGCCGUAUACCUC stands 0.07; under UAACAGGGGGGCACAGCAGGAGCGUUCACGUCGCAGCCCCUGUCAGAUUCUGGUGAAUCUGCGGAUUCUGCAGUAUAUCUC, 0.41. With UAACAGGGGGGCACAGCAGAAGCGUUCACGUCGCAGCCCCUGUCUGAUUCUGGUGAAUCUGCGAGUUCUGCUGUAUAUCUC, the self-cleavage is 0.13. With UAACAGGGGGGCACAGCAGAAGCGUUCACGUCGCUGCCCCUGUCAGAUUUUGGUGAAUCUGCGAAUUCUGCUGUAUAUCUC, the self-cleavage stood at 0.09.

In the case of UAACAGGGGGGCACAGCAGUAGCGUUCACGUCGCAGCCCCUGCCAGAUUCUGGUGAAUCUGCGAAUUCUGCUGUAUAUCUU, the self-cleavage worked out at 0.09. The value for UAACAGGGGGGCACAGCAGAAGCGUUCGCGUCGCAGCCCCGGCCAGAUUCUGGUGAACCUGCGUAUUCUGCUGUAUAUCUC was 0.12; that for UAACAGGGGGGCACUGCAGGAGCGUUCGCGUCGCAGCCCCUGUCAGAUUCUGAUGUAUCUGCGAAUUCUGCUGUAUAUCUC was 0.03. The value for UAACAGGGGGGCACAGCUGAAGCGUUCACGUCGCAGCCCCUGUCAGAUCCGGGUGAAUCUGCGGAUUAUGCUGUAUAUCCC was 0.02; that for UAACAGGGGGGCACAGCAGGAGCGUCCACGUCGCAGCCCAUGUCAGAUUCUGGUGAAUCUGCGAAUUCUGCUGUAUAUCAC was 0.04.

On to UAACAGGGGGGCACAGCAGGAGCGUUCAUGUCGCUGCCCCUGUCGGAUUCUGGUGAAUCUGCGAAUUCUGCUGUAUAUCUC, for which the self-cleavage came to 0.08.

For UAACAGGGGGGCACAGCAGAUGCGUUCACGUCGCAGCCCCUGUCAGAUUCUAGUGAAUCGGCGAAUUCUGCUGUAUAUCUC, the self-cleavage was determined as 0.06.

UAACAGGGGGGCACAGCAGAAGCGUUCGCGUCGCAGCCCCUGUCAGAUUCCGGCGAAUCUGCGAAUUCUGCUGUAUAUCUC: the self-cleavage is 0.11. Take UAACAGGGGGGCACAGCGGAAGCGUUCACGUCGCAGCCCCUGUCUGAUUCUGGUGAAUCUGCGAAUUCUGCUGUAUAUCUC: the self-cleavage was 0.08.

Turning to UAACAGGGGGGCACAGCAGAAGCGUUCACGUCGCGGCCCCUGUCAGAUUCUGGUGGAUCUGCGAAUUCUGCUGCAUAUCUC, the self-cleavage is 0.47. Under UAACAGGGGGGCACAGCAGAAGCGUUCACGUCGCAGCCCCUGUCAGAUUCUGGUGCAUCUGCGAAUUCUGCUGUAUGUCUC stands 0; under UAACAGGGGGGCACAGCUGAAGCGCUCACGUCGCAGCCCCUGUCAGAUUCUGGUGGAUCUGCGAAUUCUGCCGCAUAUCUC, 0.05. For UAACAGGGGGGCACAGCUGAAGCGAUCACGUCGCAGCCCCUGUCAGAUUCUGGUGAAUCUGCGAAUUCCGCUGAAUAUCUC, the self-cleavage was 0.05.

As for UAACAGGGGGGCACAGCAGAAGCGUUCACGUCGCAGCCCCUGUCAGAUUCUGGUGAGCCUGCGAAUUCUGCUGUAUAUCUC, the self-cleavage was 0.06. The value for UAACAGGGGGGCACUGCAGAAGUGUUUACGUCGCAGCCCCUGUGAGAUUCUGGUGAAACUGCGAAUUCUGCUGCAUAUCUC was 0.07; that for UAACAGGGGGGCACGGCAGAAGCGUUCACGUCGCAGCCCCUGUCAGAUGCUGGUGAAUCUGCGAAUUCUGCUGUAUAUCUC was 0.13.

On to UAACAGGGGGGCACAGCAGAAGCGUUCACGUCGCUGCCCCUGUCAGAUUCUGGUGAAUCUGCGGAUUCUGCUGUAUAUCUC, for which the self-cleavage was determined as 0.11. Under UAACAGGGGGGCACAGCAGAAGCGUUCACGUCGCAGCCCCUGUCGGACUCUGGUGAACCUGCGAAUUCUGCUGUAUACCUC stands 0.12. With UAACAGGGGGGCACAGCGGAAGCGAACACGACGCAGCACCUGUCCGAUUCUGGUGAAUCUGCGAAUUCUGCUGUAUAUCUC, the self-cleavage was 0.02. In the case of UAACAGGGGGGCACUGCAAAAGCGUUCACGUCGCAGCCCCUGUAAGAUUCUGGUGAAUCUGCGAAUUCUGCUGUAUAUCUC, the self-cleavage worked out at 0.15. The value for UAACAGGGGGGCACAGCAGAGGCGUUCACGUCGCAGCCCCUGUCGGGUUCUGGUGAUUCUGCGAAUUCUGCUGUAUAUCUC was 0.23; that for UAACAGGGGGGCACUGCAGCAGCGUUCACGUCGCAGCUCCUGUCAGAUUCUGGUGGAACUGCGAAUUCUGCUGUAUAUCCC was 0.04.
